# ± gives the uncertainty stated by the source. Whole data set: some 9,900 compounds, median “viability index relative to DMSO control” near 1, cut for the lowest 2% near 0.85. The list shows a part of the results.
# System: Plasmodium falciparum NF54 stage V gametocytes
# Experiment: viability index relative to DMSO control (fraction); higher = less gametocyte killing
# Details: 2.5 µM, library set: Broad Institute DOS, incubation time: 72 h
# Procedure, shortened: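 P. falciparum NF54 stage V gametocytes (serum-free medium, 0.75% gametocytemia, 1.25% hematocrit) were exposed to compound at 2.5 µM for 72 hr at 37°C under low oxygen, then stained with MitoTracker Red CMXRos and saponin for one to two hours. Red particles of 20–70 µm2 in one field per well were counted, and the viability index is that count scaled to the plate mean of solvent-only wells.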
row,SMILES,viability index
1,N#Cc1ccc(-c2ccc([C@H]3[C@@H]4CN(C(=O)C5CCCCC5)C[C@H]3N4)cc2)cc1,0.943 ± 0.11
2,CO[C@@H]1CC[C@@H]2CCOc3c(C#N)cccc3C(=O)N(C)C[C@@H](c3ccccc3)CC(=O)N(C)C[C@H]1O2,0.95 ± 0.044
3,COc1cccc(NC(=O)N2C[C@@H](O)COC[C@@H]3O[C@@H](CC(=O)N(C)C)CC[C@H]32)c1,1.02 ± 0.054
4,O=C(c1ccccc1F)N1C[C@H]2[C@@H](c3ccccc31)[C@H](CO)N2Cc1ccc2c(c1)OCO2,1.04 ± 0.091
5,CO[C@H]1CC[C@H]2CCOc3ccc(C#N)cc3C(=O)N(C)C[C@@H](c3ccccc3)CC(=O)N(C)C[C@@H]1O2,1.03 ± 0.024
6,CC(C)C[C@@H]1COCc2cn(nn2)CCCC(=O)N1,1.01 ± 0.091
7,C/C=C/c1ccccc1[C@@H]1[C@@H](CO)N(C(=O)NC2CCCCC2)[C@H]1C#N,0.981 ± 0.017
8,COc1cccc(S(=O)(=O)Nc2ccc3c(c2)C(=O)N(C)[C@H]2CC[C@H](CC(=O)NCC4CCCCC4)O[C@@H]2CO3)c1,1.014 ± 0.0095
9,N#C[C@H]1[C@H](c2ccc(-c3cccc(F)c3)cc2)[C@@H](CO)N1C(=O)CN1CCOCC1,1.08 ± 0.09
10,CCCNC(=O)c1cc2c(c(-c3cccc(-c4cc5ccccc5o4)c3)n1)[C@H](CCO)N(C(=O)NC(C)C)C2,0.889 ± 0.029
11,O=C(C1CCCCC1)N1[C@@H](CO)[C@@H]2c3ccccc3NC[C@@H]21,0.99 ± 0.051
12,Cc1noc(C)c1S(=O)(=O)Nc1ccc2c(c1)C(=O)N([C@H](C)CO)C[C@H](C)[C@H](CN(C)Cc1ccc(C(=O)O)cc1)OCCCC[C@H](C)O2,1.11 ± 0.058
13,Cc1ccccc1-c1ccc([C@H]2[C@H]3CNC[C@@H]2N3Cc2ccc3c(c2)OCO3)cc1,1.09 ± 0.1
14,C[C@@H]1CN([C@@H](C)CO)C(=O)c2cc(NS(C)(=O)=O)ccc2O[C@@H](C)CCCCO[C@@H]1CN(C)CC1CCCCC1,1.14 ± 0.18
15,C/C=C/c1ccc([C@H]2[C@H](CO)N3C(=O)CN(C(=O)NC4CCCCC4)C[C@@H]23)cc1,1 ± 0.04
16,C[C@@H]1CN([C@H](C)CO)C(=O)c2cccc(NC(=O)c3nc4ccccc4s3)c2O[C@H]1CN(C)C(=O)Nc1ccc2c(c1)OCO2,0.9047 ± 0.0069
17,COc1ccc2c3c([C@@H](CO)N(C)C[C@]33CCN(CC3)C(=O)c3cccnc3)n(C)c2c1,1.06 ± 0.05
18,CO[C@H]1CC[C@@H]2CCOc3ccc(C#N)cc3C(=O)N(C)C[C@H](c3ccccc3)CC(=O)N(C)C[C@H]1O2,0.999 ± 0.06
19,CO[C@H](CN(C)S(=O)(=O)c1ccc(C)cc1)[C@H](C)CN([C@@H](C)CO)S(=O)(=O)c1cccc(Cl)c1,0.988 ± 0.04
20,O=C(C[C@H]1CC[C@H]2[C@@H](COC[C@H](O)CN2Cc2ccc(C(F)(F)F)cc2)O1)N1CCc2ccccc2C1,1.08 ± 0.08
21,CNC(=O)C[C@H]1CC[C@@H]2[C@@H](COc3ccc(NS(=O)(=O)c4ccc(F)cc4)cc3C(=O)N2C)O1,0.986 ± 0.029
22,CNC[C@@H]1Oc2ccc(NC(=O)NC3CCCCC3)cc2CC(=O)N([C@H](C)CO)C[C@@H]1C,0.963 ± 0.082
23,CCS(=O)(=O)Nc1ccc2c(c1)C(=O)N(C)C[C@@H](OC)[C@H](C)CN(C(=O)c1ccc3c(c1)OCO3)[C@@H](C)CO2,1.14 ± 0.027
24,N#C[C@H]1[C@H](c2ccccc2-c2cccc(F)c2)[C@H](CO)N1C(=O)C1CC1,0.999 ± 0.12

row,SMILES,viability index
1,C[C@H]1CCCCO[C@H](CN(C)Cc2ccc(C(=O)O)cc2)[C@@H](C)CN([C@@H](C)CO)C(=O)c2cc(N(C)C)ccc2O1,1.06 ± 0.12
2,CO[C@H]1CC[C@H]2CCOc3ccc(C#N)cc3C(=O)N(C)C[C@H](c3ccccc3)CC(=O)N(C)C[C@H]1O2,1.07 ± 0.022
3,COCC(=O)N1[C@H](CO)[C@@H](c2ccccc2)C12CN(C(=O)c1ccccc1)C2,1.07 ± 0.09
4,CO[C@@H]1CN(C)C(=O)c2ccc(NC(=O)Nc3cc(F)ccc3F)cc2OC[C@@H](C)N(C(=O)c2ccccn2)C[C@H]1C,0.981 ± 0.066
5,COc1ccc2c3c([C@@H](CO)N(CC4CCOCC4)C[C@]33CN(Cc4nccs4)C3)n(C)c2c1,1.1 ± 0.08
6,O=C(Nc1ccccc1F)N1CCCCN2[C@H](C1)[C@H](c1ccc(/C=C/c3ccccc3)cc1)[C@@H]2CO,0.987 ± 0.023
7,CCS(=O)(=O)Nc1ccc2c(c1)C(=O)N(C)[C@@H]1CC[C@@H](CC(=O)NCc3ccc(OC)cc3)O[C@H]1CO2,0.945 ± 0.16
8,C[C@H]1CN([C@@H](C)CO)C(=O)CCCn2nncc2CO[C@H]1CN(C)C(=O)Nc1ccc(-c2cccs2)cc1,1.07 ± 0.09
9,CNC[C@H]1Oc2ccc(NC(=O)CCC(F)(F)F)cc2C(=O)N([C@H](C)CO)C[C@H]1C,1.036 ± 0.0066
10,Cc1noc(C)c1NC(=O)N(C)C[C@H]1Oc2cc(C#CCN(C)C)ccc2S(=O)(=O)N([C@@H](C)CO)C[C@H]1C,1.02 ± 0.0021
11,C[C@H]1CN([C@@H](C)CO)C(=O)c2cccc(NC(=O)c3ccncc3)c2O[C@@H]1CN(C)Cc1ccc2c(c1)OCO2,1 ± 0.025
12,N#C[C@@H]1[C@@H](c2ccc(-c3cccnc3)cc2)[C@H](CO)N1C(=O)Nc1ccc(F)cc1,1.08 ± 0.019
13,COc1ccc2c3c([nH]c2c1)[C@@H](CO)N(Cc1cc(F)ccc1F)C[C@]31CN(C1)C(=O)C1CCC1,0.88 ± 0.032
14,CN1C(=O)c2cc(NC(=O)c3ccc4c(c3)OCO4)ccc2OC[C@H]2O[C@H](CC(=O)O)CC[C@@H]21,1.15 ± 0.058
15,CO[C@H]1CC[C@H]2CCOc3ccc(C#N)cc3C(=O)N(C)C[C@@H](c3ccccc3)CC(=O)N(C)C[C@H]1O2,1.04 ± 0.024
16,O=C(C[C@@H]1C[C@H]2c3cc(NS(=O)(=O)c4ccccc4)ccc3O[C@H]2[C@H](CO)O1)N1CCOCC1,1.015 ± 0.0092
17,N#C[C@H]1[C@@H](c2ccccc2C2=CCCCC2)[C@@H](CO)N1S(=O)(=O)c1ccccc1,1.09 ± 0.14
18,Cc1ccccc1-c1ccc([C@H]2[C@H](CO)N3CCCCN(S(=O)(=O)Cc4ccccc4)C[C@@H]23)cc1,0.924 ± 0.034
19,CN1C(=O)c2cc(NC(=O)c3ccc4c(c3)OCO4)ccc2OC[C@@H]2O[C@H](CC(=O)O)CC[C@H]21,1.17 ± 0.096
20,CO[C@H]1CN(C)C(=O)c2ccc(NS(=O)(=O)CC(F)(F)F)cc2OC[C@@H](C)N(C(=O)NC(C)C)C[C@@H]1C,1.02 ± 0.095
21,CC(C)CC#Cc1ccc([C@H]2[C@@H](CO)N3CCCCN(C(=O)Nc4ccccc4)C[C@@H]23)cc1,1.02 ± 0.057
22,CO[C@H](CN(C)Cc1nccs1)[C@H](C)CN([C@@H](C)CO)S(=O)(=O)c1ccc(F)cc1,0.963 ± 0.087
23,CO[C@H]1CC[C@H]2CCN(C)C(=O)[C@@H](C)N(C)C(=O)c3cccc(C#N)c3OC[C@H]1O2,1.059 ± 0.0019
24,C/C=C/c1ccc([C@H]2[C@@H](CO)N(CC3CCCC3)C23CN(S(=O)(=O)CC)C3)cc1,1.116 ± 0.011

row,SMILES,viability index
1,O=C(Cc1ccncc1)NCC[C@H]1CC[C@H](NS(=O)(=O)c2ccccc2Cl)[C@@H](CO)O1,1.114 ± 0.011
2,CO[C@H](CN(C)C(=O)c1ccc2c(c1)OCO2)[C@@H](C)CN([C@H](C)CO)S(=O)(=O)c1ccc(Cl)cc1,1.16 ± 0.098
3,COc1ccc(NC(=O)N2C[C@H](O)COC[C@@H]3O[C@H](CC(=O)NCc4ccncn4)CC[C@H]32)cc1,1.07 ± 0.038
4,CN1c2ccc(Br)cc2[C@@H]2[C@@H](CCN2C(=O)Cc2ccccc2)[C@@H]1CO,1.03 ± 0.061
5,C/C=C/c1ccc([C@@H]2[C@H](CO)N(S(=O)(=O)CC)C23CN(C(C)=O)C3)cc1,1 ± 0.098
6,COCCNC(=O)C[C@@H]1C[C@H]2c3cc(NC(=O)CN(C)C)ccc3O[C@H]2[C@H](CO)O1,1.11 ± 0.037
7,Cc1noc(C)c1S(=O)(=O)N(C)C[C@@H]1OCc2cn(nn2)CCCC(=O)N([C@H](C)CO)C[C@H]1C,1.07 ± 0.039
8,CCCC#Cc1ccc([C@@H]2[C@H]3CN(CCC)CCCCN3[C@H]2CO)cc1,1.01 ± 0.034
9,CC(=O)NC[C@@H]1[C@@H](c2ccc(C#Cc3ccccc3F)cc2)[C@@H](CO)N1C(C)=O,0.953 ± 0.059
10,COc1cccc(CN2C[C@]3(CCN(C)CC3)c3c([nH]c4cc(OC)ccc34)[C@@H]2CO)c1,0.976 ± 0.058
11,O=C(Cc1ccccn1)N1CC2(C1)[C@H](c1ccccc1)[C@@H](CO)N2C(=O)c1ccncc1,1.09 ± 0.026
12,C[C@@H]1CN([C@@H](C)CO)C(=O)c2c(c3ccccc3n2C)-c2ccccc2CO[C@H]1CN(C)Cc1cccc(C(=O)Nc2ccccc2N)c1,0.969 ± 0.056
13,CN1c2ccc(C#Cc3cccnc3)cc2[C@@H]2[C@@H](CCN2C(=O)CN2CCOCC2)[C@H]1CO,1.2 ± 0.032
14,COc1cccc(C#Cc2ccc([C@H]3[C@@H](CO)N4C(=O)CN(C(=O)Cc5cccnc5)C[C@H]34)cc2)c1,0.804 ± 0.11
15,Cc1noc(C)c1NC(=O)N[C@H]1C=C[C@H](CC(=O)Nc2ccc(-c3ccccc3)cc2)O[C@H]1CO,1.0744 ± 0.00039
16,C[C@@H](NC(=O)[C@H]1[C@H](CO)[C@H]2Cn3c(cccc3=O)[C@H]2N1CCC(F)(F)F)c1ccccc1,1.01 ± 0.065
17,O=C(CN1CCOCC1)N[C@H]1CC[C@@H](CCn2cc(C3CC3)nn2)O[C@H]1CO,1.14 ± 0.11
18,Cc1ccccc1-c1ccc([C@@H]2[C@@H]3CN(Cc4cocn4)C[C@H]2N3)cc1,0.949 ± 0.05
19,C[C@@H]1CN([C@H](C)CO)C(=O)CCCn2nncc2CO[C@H]1CN(C)C(=O)Nc1cccc(Oc2ccccn2)c1,1.03 ± 0.1
20,COCCNC(=O)C[C@@H]1CC[C@H]2[C@@H](COC[C@@H](O)CN2Cc2ccc(Cl)c(Cl)c2)O1,1.02 ± 0.014
21,Cc1ccc(S(=O)(=O)N[C@@H]2C=C[C@@H](CC(=O)NCc3ccc(Cl)c(Cl)c3)O[C@H]2CO)cc1,1.03 ± 0.1
22,CCCC(=O)Nc1ccc2c(c1)C(=O)N(C)[C@@H]1CC[C@@H](CC(=O)NCc3cccc(F)c3)O[C@@H]1CO2,1.03 ± 0.056
23,CC(C)[C@@H]1C/C=C/C[C@H](C)Oc2ccccc2C(=O)N(C)[C@@H](C(C)C)C(=O)N1.CC(C)[C@@H]1C/C=C\C[C@H](C)Oc2ccccc2C(=O)N(C)[C@@H](C(C)C)C(=O)N1,1.05 ± 0.099

# Source: the supplement of paper PMC4723716
